Reference: the supplement of paper PMC4967469
A lower IC50 marks a more sensitive line; a limit (>, <) means that the fit lies beyond the doses tested. AUC sums up the same curve from the lowest dose to the 256-fold higher top dose; it is 1 without any effect and falls as sensitivity rises. The top dose, if marked as inferred, was derived from the fitted curves, not read from the paper. For some assays here: Drugs with an entry number were screened twice under separate entries, and the two screens often disagree.

Columns and labels:
Assay in all cases: Viability of human cancer cell lines after 72 h of drug (GDSC screen)
Olaparib = compound: O=C(c1cc(Cc2n[nH]c(=O)c3ccccc23)ccc1F)N1CCN(C(=O)C2CC2)CC1 [Olaparib]
Description: (§1)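 Human cancer cell lines in 384-well plates, medium with 10% serum, drug for 72 h over a 256-fold dose range (nine 2-fold or five 4-fold steps up to the top dose). Adherent lines were fixed and stained with the nucleic acid dye Syto60, suspension lines read with resazurin; signal relative to control wells, capped at 0 and 100%. One two-parameter sigmoid per drug and line, fitted in a mixed model over all curves with the slope shared within a line.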

BMS-536924 = compound: Cc1cc(N2CCOCC2)cc2[nH]c(-c3c(NC[C@@H](O)c4cccc(Cl)c4)cc[nH]c3=O)nc12 [BMS-536924]
Description: as §1

Shikonin = compound: CC(C)=CC[C@@H](O)C1=CC(=O)c2c(O)ccc(O)c2C1=O [Shikonin]; settings: top dose 16 µM; top dose inferred
Description: as §1

CGP-082996 (CINK4) = compound: CCNc1cc(NC2CCC(O)CC2)nc(Nc2ccc3c(ccn3Cc3ccccc3)c2)n1 [CGP-082996 (CINK4)]; settings: top dose 5.12 µM; top dose inferred
Description: as §1

SB-525334 = compound: Cc1cccc(-c2[nH]c(C(C)(C)C)nc2-c2ccc3nccnc3c2)n1 [SB-525334]; settings: top dose 20 µM; top dose inferred
Description: as §1

A-770041 = compound: COc1cc(-c2nn([C@H]3CC[C@H](N4CCN(C(C)=O)CC4)CC3)c3ncnc(N)c23)ccc1NC(=O)c1cc2ccccc2n1C [A-770041]; settings: top dose 5.12 µM; top dose inferred
Description: as §1

XMD8-85 = compound: COc1cc(N2CCN(C)CC2)ccc1Nc1ncc2c(n1)N(C)c1ccccc1C(=O)N2C [XMD8-85]; settings: top dose 8 µM; top dose inferred
Description: as §1

HG-5-113-01 = compound: CNC(=O)c1ccc(Nc2cc(Nc3ccccc3S(=O)(=O)C(C)C)c3cc[nH]c3n2)nc1 [HG-5-113-01]; settings: top dose 10 µM; top dose inferred
Description: as §1

VX-702 = compound: NC(=O)c1ccc(N(C(N)=O)c2c(F)cccc2F)nc1-c1ccc(F)cc1F [VX-702]; settings: top dose 2 µM; top dose inferred
Description: as §1

Wee1 inhibitor 681640 = compound: O=C1NC(=O)c2c1c(-c1ccccc1Cl)cc1[nH]c3ccc(O)cc3c21 [Wee1 inhibitor 681640]; settings: top dose 2 µM; top dose inferred
Description: as §1

BIRB 0796 = compound: Cc1ccc(-n2nc(C(C)(C)C)cc2NC(=O)Nc2ccc(OCCN3CCOCC3)c3ccccc23)cc1 [BIRB 0796]; settings: top dose 10 µM; top dose inferred
Description: as §1

[1] = top dose 10 µM, screen: GDSC drug entry 1495
[2] = top dose 4 µM, screen: GDSC drug entry 1091, top dose inferred
[3] = top dose 5.12 µM, screen: GDSC drug entry 62
[4] = top dose 5 µM, screen: GDSC drug entry 1017, top dose inferred

## COLO-829 (melanoma, adherent)
Olaparib; [1]
  AUC: 0.956
  IC50: > 10 µM
BMS-536924; [2]
  AUC: 0.965
  IC50: > 4 µM
BMS-536924; [3]
  AUC: 0.97
  IC50: > 5.12 µM
Shikonin
  AUC: 0.42
  IC50: 0.547 µM
CGP-082996 (CINK4)
  AUC: 0.96
  IC50: > 5.12 µM
SB-525334
  AUC: 0.917
  IC50: > 20 µM
A-770041
  AUC: 0.86
  IC50: > 5.12 µM
XMD8-85
  AUC: 0.884
  IC50: > 8 µM
HG-5-113-01
  AUC: 0.951
  IC50: > 10 µM

## Hs-445 (Hodgkin lymphoma, suspension)
Olaparib; [1]
  AUC: 0.957
  IC50: > 10 µM
BMS-536924; [2]
  AUC: 0.912
  IC50: > 4 µM
BMS-536924; [3]
  AUC: 0.869
  IC50: 4.14 µM
Shikonin
  AUC: 0.312
  IC50: 0.312 µM
CGP-082996 (CINK4)
  AUC: 0.982
  IC50: > 5.12 µM
SB-525334
  AUC: 0.956
  IC50: > 20 µM
A-770041
  AUC: 0.867
  IC50: 4.05 µM
XMD8-85
  AUC: 0.958
  IC50: > 8 µM
HG-5-113-01
  AUC: 0.798
  IC50: 4.34 µM

## SCH (stomach, adherent)
Olaparib; [4]
  AUC: 0.953
  IC50: > 5 µM
Olaparib; [1]
  AUC: 0.827
  IC50: 6.78 µM
BMS-536924; [2]
  AUC: 0.973
  IC50: > 4 µM
BMS-536924; [3]
  AUC: 0.987
  IC50: > 5.12 µM
VX-702
  AUC: 0.977
  IC50: > 2 µM
Wee1 inhibitor 681640
  AUC: 0.923
  IC50: > 2 µM
Shikonin
  AUC: 0.9
  IC50: > 16 µM
CGP-082996 (CINK4)
  AUC: 0.946
  IC50: > 5.12 µM
SB-525334
  AUC: 0.988
  IC50: > 20 µM
A-770041
  AUC: 0.986
  IC50: > 5.12 µM
XMD8-85
  AUC: 0.987
  IC50: > 8 µM
BIRB 0796
  AUC: 0.984
  IC50: > 10 µM

## SF539 (glioma, adherent)
Olaparib; [4]
  AUC: 0.931
  IC50: > 5 µM
Olaparib; [1]
  AUC: 0.896
  IC50: > 10 µM
BMS-536924; [2]
  AUC: 0.964
  IC50: > 4 µM
BMS-536924; [3]
  AUC: 0.956
  IC50: > 5.12 µM
VX-702
  AUC: 0.987
  IC50: > 2 µM
Wee1 inhibitor 681640
  AUC: 0.86
  IC50: 1.41 µM
Shikonin
  AUC: 0.487
  IC50: 0.925 µM
CGP-082996 (CINK4)
  AUC: 0.853
  IC50: 3.4 µM
SB-525334
  AUC: 0.987
  IC50: > 20 µM
A-770041
  AUC: 0.965
  IC50: > 5.12 µM
XMD8-85
  AUC: 0.846
  IC50: 5 µM
BIRB 0796
  AUC: 0.986
  IC50: > 10 µM

## SK-N-FI (neuroblastoma, adherent)
Olaparib; [4]
  AUC: 0.988
  IC50: > 5 µM
Olaparib; [1]
  AUC: 0.988
  IC50: > 10 µM
BMS-536924; [2]
  AUC: 0.713
  IC50: 0.992 µM
BMS-536924; [3]
  AUC: 0.986
  IC50: > 5.12 µM
VX-702
  AUC: 0.984
  IC50: > 2 µM
Wee1 inhibitor 681640
  AUC: 0.927
  IC50: > 2 µM
Shikonin
  AUC: 0.653
  IC50: 2.65 µM
CGP-082996 (CINK4)
  AUC: 0.983
  IC50: > 5.12 µM
SB-525334
  AUC: 0.865
  IC50: 17.6 µM
A-770041
  AUC: 0.972
  IC50: > 5.12 µM
XMD8-85
  AUC: 0.966
  IC50: > 8 µM
BIRB 0796
  AUC: 0.943
  IC50: > 10 µM

## SK-UT-1 (soft tissue, adherent)
Olaparib; [4]
  AUC: 0.966
  IC50: > 5 µM
Olaparib; [1]
  AUC: 0.878
  IC50: 8.61 µM
BMS-536924; [2]
  AUC: 0.972
  IC50: > 4 µM
BMS-536924; [3]
  AUC: 0.95
  IC50: > 5.12 µM
VX-702
  AUC: 0.984
  IC50: > 2 µM
Wee1 inhibitor 681640
  AUC: 0.891
  IC50: 1.97 µM
Shikonin
  AUC: 0.09
  IC50: < 0.0625 µM
CGP-082996 (CINK4)
  AUC: 0.964
  IC50: > 5.12 µM
SB-525334
  AUC: 0.989
  IC50: > 20 µM
A-770041
  AUC: 0.937
  IC50: > 5.12 µM
XMD8-85
  AUC: 0.846
  IC50: 5.09 µM
BIRB 0796
  AUC: 0.987
  IC50: > 10 µM

## ST486 (Burkitt lymphoma, suspension)
Olaparib; [4]
  AUC: 0.987
  IC50: > 5 µM
Olaparib; [1]
  AUC: 0.966
  IC50: > 10 µM
BMS-536924; [2]
  AUC: 0.989
  IC50: > 4 µM
BMS-536924; [3]
  AUC: 0.952
  IC50: > 5.12 µM
VX-702
  AUC: 0.987
  IC50: > 2 µM
Wee1 inhibitor 681640
  AUC: 0.957
  IC50: > 2 µM
Shikonin
  AUC: 0.105
  IC50: 0.0642 µM
CGP-082996 (CINK4)
  AUC: 0.856
  IC50: 3.39 µM
SB-525334
  AUC: 0.793
  IC50: 7.97 µM
A-770041
  AUC: 0.889
  IC50: 4.65 µM
XMD8-85
  AUC: 0.816
  IC50: 3.8 µM
BIRB 0796
  AUC: 0.99
  IC50: > 10 µM

## SU-DHL-4 (B-cell lymphoma, suspension)
Olaparib; [4]
  AUC: 0.997
  IC50: > 5 µM
Olaparib; [1]
  AUC: 0.995
  IC50: > 10 µM
BMS-536924; [2]
  AUC: 0.997
  IC50: > 4 µM
BMS-536924; [3]
  AUC: 0.91
  IC50: 3.51 µM
VX-702
  AUC: 0.997
  IC50: > 2 µM
Wee1 inhibitor 681640
  AUC: 0.997
  IC50: > 2 µM
Shikonin
  AUC: 0.609
  IC50: 1.84 µM
CGP-082996 (CINK4)
  AUC: 0.873
  IC50: 2.7 µM
SB-525334
  AUC: 0.992
  IC50: > 20 µM
A-770041
  AUC: 0.07
  IC50: 0.0248 µM
XMD8-85
  AUC: 0.822
  IC50: 3.07 µM
BIRB 0796
  AUC: 0.997
  IC50: > 10 µM

## SU-DHL-6 (B-cell lymphoma, suspension)
Olaparib; [4]
  AUC: 0.995
  IC50: > 5 µM
Olaparib; [1]
  AUC: 0.995
  IC50: > 10 µM
BMS-536924; [2]
  AUC: 0.993
  IC50: > 4 µM
BMS-536924; [3]
  AUC: 0.796
  IC50: 1.73 µM
VX-702
  AUC: 0.995
  IC50: > 2 µM
Wee1 inhibitor 681640
  AUC: 0.962
  IC50: > 2 µM
Shikonin
  AUC: 0.558
  IC50: 1.38 µM
CGP-082996 (CINK4)
  AUC: 0.885
  IC50: 3.14 µM
SB-525334
  AUC: 0.984
  IC50: > 20 µM
A-770041
  AUC: 0.091
  IC50: 0.0268 µM
XMD8-85
  AUC: 0.726
  IC50: 1.79 µM
BIRB 0796
  AUC: 0.995
  IC50: > 10 µM

## SU-DHL-16 (B-cell lymphoma, suspension)
Olaparib; [4]
  AUC: 0.98
  IC50: > 5 µM
Olaparib; [1]
  AUC: 0.982
  IC50: > 10 µM
BMS-536924; [2]
  AUC: 0.96
  IC50: > 4 µM
BMS-536924; [3]
  AUC: 0.896
  IC50: 3.27 µM
VX-702
  AUC: 0.989
  IC50: > 2 µM
Wee1 inhibitor 681640
  AUC: 0.987
  IC50: > 2 µM
Shikonin
  AUC: 0.314
  IC50: 0.353 µM
CGP-082996 (CINK4)
  AUC: 0.95
  IC50: > 5.12 µM
SB-525334
  AUC: 0.98
  IC50: > 20 µM
A-770041
  AUC: 0.358
  IC50: 0.145 µM
XMD8-85
  AUC: 0.918
  IC50: 6.03 µM
BIRB 0796
  AUC: 0.996
  IC50: > 10 µM

## SUP-B15 (lymphoblastic leukaemia, suspension)
Olaparib; [4]
  AUC: 0.757
  IC50: 1.66 µM
BMS-536924; [3]
  AUC: 0.925
  IC50: > 5.12 µM
VX-702
  AUC: 0.951
  IC50: > 2 µM
Wee1 inhibitor 681640
  AUC: 0.982
  IC50: > 2 µM
Shikonin
  AUC: 0.465
  IC50: 0.806 µM
CGP-082996 (CINK4)
  AUC: 0.866
  IC50: 4.25 µM
SB-525334
  AUC: 0.842
  IC50: 13.2 µM
A-770041
  AUC: 0.514
  IC50: 0.349 µM
XMD8-85
  AUC: 0.811
  IC50: 4.03 µM
BIRB 0796
  AUC: 0.983
  IC50: > 10 µM
